From patent US10155934B2, “Cytochrome P450 polypeptide with increased enzyme activity” (SANOFI, priority 2014, dated 2018)

Biological target: T1, CYP11A1 SA1 mutant (Bos taurus, UniProt P00189, N328D/R264T)
T1 sequence (P00189 40-520 R264T/N328D): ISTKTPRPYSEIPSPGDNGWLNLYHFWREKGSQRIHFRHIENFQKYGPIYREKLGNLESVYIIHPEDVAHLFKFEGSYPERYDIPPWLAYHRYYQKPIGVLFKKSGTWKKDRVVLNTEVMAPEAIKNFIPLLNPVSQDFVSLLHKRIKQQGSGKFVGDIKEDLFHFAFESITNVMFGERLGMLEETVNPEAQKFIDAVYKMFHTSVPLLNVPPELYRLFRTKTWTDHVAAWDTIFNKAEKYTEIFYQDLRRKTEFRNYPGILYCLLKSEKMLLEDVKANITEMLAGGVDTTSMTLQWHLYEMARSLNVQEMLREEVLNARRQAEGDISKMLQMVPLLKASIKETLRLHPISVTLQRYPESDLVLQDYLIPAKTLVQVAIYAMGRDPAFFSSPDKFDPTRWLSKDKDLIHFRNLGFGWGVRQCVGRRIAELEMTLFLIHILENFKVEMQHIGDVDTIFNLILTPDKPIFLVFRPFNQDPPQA
Details: after 48 hours, SA1 expressed in Bacillus megaterium (FIG. 2)
Procedure: The in vivo conversion of 300 μM cholesterol into pregnelonone was evaluated by HPLC after 24 h. Bacillus megaterium was cultivated in TB-medium containing 10 μg/ml tetracycline at 37° C. with 180 rpm shaking. Protein expression was induced by adding 0.25 g of xylose dissolved in 1 mL water, followed by the subsequent addition of the substrate, dissolved in 2-hydroxypropyl-β-cyclodextrin.
Finally the improved system was used to test the SA1 polypeptide conversion capacity with various substrates of biotechnological interest: campesterol, desmosterol, ergosta-5,24(28)-dien-3β-ol and a mixture of various 20, 22-OH oxysterols.
Pregnenolone formation was quantified for every substrate (FIG. 2). […] Conversion of the more hydrophobic sterols campesterol, desmosterol and ergostadienol only occurred at a rate of approximately 19% after 48 hours, compared to cholesterol.

Row | Compound | conversion rate compared to cholesterol | pregnenolone formation [mg/L]
1 | CC(C)[C@H](C)CC[C@@H](C)[C@H]1CC[C@H]2[C@@H]3CC=C4C[C@@H](O)CC[C@]4(C)[C@H]3CC[C@]12C [campesterol] | approximately 19% | –
2 | CC(C)CCC[C@@H](C)[C@H]1CC[C@H]2[C@@H]3CC=C4C[C@@H](O)CC[C@]4(C)[C@H]3CC[C@]12C [cholesterol] | – | ~35
3 | CC(C)=CCC[C@@H](C)[C@H]1CC[C@H]2[C@@H]3CC=C4C[C@@H](O)CC[C@]4(C)[C@H]3CC[C@]12C [desmosterol] | approximately 19% | –
4 | C=C(CC[C@@H](C)[C@H]1CC[C@H]2[C@@H]3CC=C4C[C@@H](O)CC[C@]4(C)[C@H]3CC[C@]12C)C(C)C [ergostadienol, ergosta-5,24(28)-dien-3β-ol] | approximately 19% | –
